# The whole screen tested about 45,000 compounds, of which about 200 (0.44%) were called active. Another 7% or so got no clear call; they are omitted. Calls follow the shape of the dose curve; as a rule, active = well fitted activation curve with a large enough effect; inconclusive = small, poorly fitted or top-dose-only effect; inactive = no such curve, though single readings can be large or run the other way. This is one part of the list.
# Experiment: qHTS of TDP-43 Inhibitors: NCGC Sytravon Library Screen; also: 0% is about no effect; nearly all actives have a fitted effect of over 55% in size
# Conditions: yeast TDP-43 toxicity rescue, BacTiter-Glo growth, 24 h; series mostly up to 46.1 µM; growth rescue (activation): at the top concentration
# Summary of the method: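 TDP-43-expressing yeast, pregrown in raffinose, seeded at OD600 0.02 in galactose medium with compound for 24 hr at 30 deg C. Growth read by BacTiter-Glo luminescence, so rescue of toxicity appears as activation.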
row,Compound,growth rescue (activation)
1,CCOc1ccc(S(=O)(=O)N2CCCC(C(=O)N3CCOCC3)C2)cc1 (centres undefined),inactive: 6.01%
2,O=C(CCNC(=O)c1ccccc1)Nc1ccc(S(=O)(=O)Nc2ncccn2)cc1,inactive: 14.3%
3,O=C(NCC1CCCO1)c1cccc2ccccc12 (centres undefined),inactive: 2.86%
4,Cc1cc(S(=O)(=O)NCc2cccs2)ccc1-n1cnnn1,inactive: 26%
5,COc1ccc(/C=N/NC(=O)CCc2n[nH]c(=O)[nH]c2=O)cc1O,inactive: 8.31%
6,COc1ccc(CN(C)C(=O)c2ccc(COc3ccccc3)cc2)c(OC)c1,inactive: 29.3%
7,CC(C)CCNC(=O)C1CCN(Cc2cccc(OCc3ccccc3)c2)CC1,inactive: -23.6%
8,CCc1ccc2[nH]c(=O)c(CN(CCN(CC)CC)C(=O)NC3CCCCC3)cc2c1,inactive: -17.3%
9,Cc1ccc(C2=NN(C(=O)CSc3nc(N)cc(N)n3)C(c3ccco3)C2)cc1 (centres undefined),inactive: 6.64%
10,COc1ccc(-c2cc(C(=O)N3CCN(c4ccccc4OC)CC3)no2)cc1,inactive: -8.43%
11,O=C(Nc1cc(Cl)ccc1N1CCOCC1)c1ccc(N2CCCCC2)c([N+](=O)[O-])c1,inactive: -23.6%
12,COc1ccccc1NC(=O)c1cc(Cl)nnc1Cl,inactive: 0.408%
13,CC(NC(=O)COC(=O)/C=C/c1ccco1)c1ccccc1 (centres undefined),inactive: 20.8%
14,O=C(/C=C/c1ccc(F)cc1)NC(=S)N1CCN(c2ccccn2)CC1,inactive: 22.1%
15,Cc1cc2nnc(SCC(=O)N(C)C3CCS(=O)(=O)C3)n2c2ccccc12 (centres undefined),inactive: 8.17%
16,O=C(Nc1ccc(F)cc1)Nc1ccccc1F,inactive: 11.9%
17,COc1ccc2c(c1)nc(SCC(C)O)n2C (centres undefined),inactive: 2.21%
18,O=C(CCN1C(=O)/C(=C/c2ccccc2)SC1=S)NNC(=O)c1ccncc1,inactive: -17.1%
19,CCc1nc2ccc(C(=O)Nc3cc(-c4ccccc4)ccc3OC)cn2c1N(CC)CC(=O)N(C)C,inactive: -3.03%
20,CCOC(=O)C1CCN(C(=O)c2ccccc2NS(=O)(=O)c2ccc(F)cc2)CC1,inactive: 7.85%
21,CC(C(=O)OCC(=O)c1ccccc1)N1C(=O)C2C3CCC(C3)C2C1=O (centres undefined),inactive: 7.15%
22,O=C(N/N=C1\CCc2ccccc21)c1ccccc1Cl,inactive: 7.05%
23,CCc1ccc(-c2nc(CCl)cs2)cc1,inactive: 32.8%

row,Compound,growth rescue (activation)
1,Cc1cccnc1NC(N)=S,inactive: 8.89%
2,CCN(CC)c1ccc(C(=O)N/N=C(\C)c2ccc(O)cc2)cc1,inactive: 25.1%
3,COCCNC(=O)CCN1N=C(c2ccccc2)CCC1=O,inactive: -1.56%
4,CCc1ccc(NC(=O)CN2CCN(c3ccc(OC)cc3)CC2)cc1,inactive: 0.286%
5,O=C1CCCc2ccccc2N1Cc1ccccc1,inactive: 16.4%
6,O=S(=O)(Nc1ccc2cn[nH]c2c1)c1cc(Br)ccc1Br,inactive: -1.09%
7,O=C1c2ccccc2C(=O)c2cc(S(=O)(=O)Nc3ccccc3)ccc21,inactive: -12.5%
8,CCOc1ccc(C(=O)Cn2cnc3ccccc3c2=O)cc1,inactive: -27.4%
9,CCCCCCNC(=O)c1c(O)c2cccc3c2n(c1=O)CCC3,inactive: -27.7%
10,COc1ccccc1CN1CCNC(=O)C1CC(=O)NCCOc1cccnc1 (centres undefined),inactive: -2.26%
11,CNC(=O)NC(=O)C(C)OC(=O)c1oc2ccccc2c1CSc1ccc(Cl)cc1 (centres undefined),inactive: 7.55%
12,CC(NC(=O)COC(=O)c1ccc([N+](=O)[O-])o1)c1ccccc1 (centres undefined),inactive: 29.7%
13,COc1ccc(-n2nc(C(=O)NCC(=O)N3CCN(c4ccccc4OC)CC3)c3ccccc3c2=O)c(OC)c1,inactive: 5.85%
14,COc1ccc(CCN(Cc2ccc(C(C)C)cc2)S(=O)(=O)c2ccc(S(=O)(=O)N(C)C)cc2)cc1OC,inactive: 12.3%
15,COc1ccc2c(c1)c(CC(=O)Nc1ccc(C(C)=O)cc1)c(C)n2C(=O)c1ccc(Cl)cc1,inactive: 24.7%
16,COc1ccc(CN(C)CC(=O)Nc2cccc3ccccc23)cc1F,inactive: 4.15%
17,CCN1CC(CN(C)Cc2nc(-c3cccs3)no2)CC1=O (centres undefined),inactive: 5.52%
18,Cc1ccc(CNc2nc3c([nH]2)c(=O)n(C)c(=O)n3C)cc1,inactive: -10.8%
19,CCOC(=O)C1=C(C)NC(=O)NC1c1cc2c(cc1Br)OCO2 (centres undefined),inactive: -24.1%
20,Cc1ccc(S(=O)(=O)Nc2nc(C)c(C(=O)NNS(=O)(=O)c3ccccc3)s2)cc1,inactive: 4.66%
21,Cc1ccc(NC(=O)CN(c2ccc(Cl)cc2)S(=O)(=O)c2cc([N+](=O)[O-])ccc2Cl)cc1,inactive: 1.23%
22,COc1ccc(/C=N/Nc2cc(N3CCCC3)nc(N3CCCC3)n2)cc1,inactive: -0.262%
23,Cc1ccc(NC(=O)NC(=O)CN2CCN(c3ccc(O)cc3)CC2)c(C)c1,inactive: -1.68%

row,Compound,growth rescue (activation)
1,CC(C)Oc1ccc(C2CCC(=O)NC2=O)cc1 (centres undefined),inactive: -2.75%
2,CCN1CCCC1CNC(=O)c1ccc(N2CCOCC2)c(NS(=O)(=O)c2ccc(OC)cc2)c1 (centres undefined),inactive: 3.89%
3,CC(=O)c1c(N2CCN(c3ccccn3)CC2)nc(=S)n(-c2ccccc2)c1C,inactive: -3.76%
4,N#Cc1ccccc1NC(=O)CSc1ccc([N+](=O)[O-])cn1,inactive: -15.5%
5,CC(=O)c1ccc(Nc2nc3ccc(C)cc3n3cnnc23)cc1,inactive: -5.06%
6,CCCCC1(C(=O)OCC)NC(c2ccc(O)cc2)C2C(=O)N(c3ccccc3)C(=O)C21 (centres undefined),inactive: 3.56%
7,CCOc1ccc(C(=O)NC(=S)Nc2cccc(NC(=O)c3ccco3)c2)cc1[N+](=O)[O-],inactive: 0.154%
8,CNS(=O)(=O)c1cccc(C(=O)NCC(C)(C)N2CCCCC2)c1,inactive: 6.69%
9,CC(=O)NC(Cc1ccccc1)C(=O)OCC(=O)c1ccc(Cl)cc1 (centres undefined),inactive: 3.26%
10,S=C1NNC2(CC3CC2C2CCCC32)NN1 (centres undefined),inactive: 2.42%
11,COc1ccc(CNC(=O)c2nccnc2CO)cc1,inactive: 5.37%
12,CC(C)OC(=O)c1ccc(OC(=O)c2cccnc2)cc1,inactive: 4.05%
13,O=C(CCNS(=O)(=O)c1ccc(Br)s1)NCc1ccccc1Cl,inactive: 16.5%
14,CC1(C)CC(=O)c2c(nc3ccccc3c2N)C1,inactive: 8.47%
15,Cc1cc(F)ccc1-c1cc(C(=O)NCc2ccc(C(F)(F)F)cc2)[nH]n1,inactive: 19.7%
16,O=C(COC(=O)c1ccccn1)Nc1c(Cl)cccc1Cl,inactive: 16.1%
17,CCOc1ccc(CN2C(=O)c3ccccc3C2C(=O)NC(C)CC)cc1OC (centres undefined),inactive: -14.5%
18,Cc1cc(C(=O)Nc2ccc(N3CCCC3)c(Cl)c2)ccc1[N+](=O)[O-],inactive: 19.9%
19,COc1ccc(-n2c(-c3ccc(Br)cc3)c[n+]3c2CCC3)cc1,inactive: -0.771%
20,CCc1nc2c(OCC3COc4ccccc4O3)cccn2c1N(C)C(=O)c1ccccc1F (centres undefined),inactive: 3.04%
21,Cc1csc(SCC(=O)Nc2ccc3[nH]c(=O)[nH]c3c2)n1,inactive: 7.89%
22,O=C(CCc1nnc(C2(c3ccc(Cl)cc3)CCC2)o1)NCCCn1cccn1,inactive: -1%
23,COc1cc2c(cc1OC)CN(C(=O)CCOc1ccccc1)CC2,inactive: 6.13%
